For this assay, the target named is human orexin 1 receptor (Homo sapiens (Human), UniProt O43613). As to the kind of experiment: biochemical.
UniProt O43613, sequence (O43613 whole entry): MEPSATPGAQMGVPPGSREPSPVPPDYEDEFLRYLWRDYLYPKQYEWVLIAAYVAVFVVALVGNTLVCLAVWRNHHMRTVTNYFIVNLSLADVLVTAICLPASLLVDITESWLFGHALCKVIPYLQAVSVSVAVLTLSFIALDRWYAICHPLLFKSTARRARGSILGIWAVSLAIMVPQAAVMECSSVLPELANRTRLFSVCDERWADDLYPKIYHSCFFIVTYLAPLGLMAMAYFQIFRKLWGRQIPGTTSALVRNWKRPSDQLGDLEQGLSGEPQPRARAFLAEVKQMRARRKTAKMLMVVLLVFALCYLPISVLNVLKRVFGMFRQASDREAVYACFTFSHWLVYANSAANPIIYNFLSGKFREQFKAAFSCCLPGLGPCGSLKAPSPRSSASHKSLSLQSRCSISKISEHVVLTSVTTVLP

For `Cc1cc(C)nc(N2CC3CN(C(=O)c4c(F)cccc4-c4ccc(Cl)cn4)CC3C2)n1` (stereo not shown) [Example 484, 2-{[2-(5-Chloropyridin-2-yl)-6-fluorophenyl]carbonyl}-5-(4,6-dimethylpyrimidin-2-yl)octahydropyrrolo[3,4-c]pyrrole], the affinity, expressed as Ki, was 2400 nM.

The values are drawn from patent US9586962B2, “Disubstituted octahydropyrrolo [3,4-C] pyrroles as orexin receptor modulators” (Janssen Pharmaceutica NV, priority 2011, dated 2017).
